# Experimental data: the supplement of paper PMC6609913
# Counter-ions that a name gives are not always drawn. ± gives the standard deviation of the averaged measurements. In all, about 1,300 compounds were measured (“normalised cell viability”: median about 1, lowest 2% from about 0.14 on). The list shows a part of the results.
# System: V-C8 (BRCA2-deficient hamster cells)
# Assay: normalised cell viability (fraction of plate median); higher = more viable cells (less toxic)
# Details: 5 µM
# Summary of the method: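 Library drugs, held as 10 mM stocks in DMSO, were diluted to 5 μM in 100 μl medium and added to 96-well plates of V-C8 hamster cells, either lacking BRCA2 or with BRCA2 restored, 24 h after seeding. Plates ran for 3 days (screen 1) or 6 days (screen 2), alongside solvent-only wells. Viability came from a resazurin readout, median-plate normalised, as the mean of triplicate wells.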
Structure (SMILES),normalised cell viability (treatment time: 3 days),normalised cell viability (treatment time: 6 days)
Nc1ccc(S(=O)(=O)NC(=O)c2ccccc2)cc1 [Sulfabenzamide],0.92 ± 0.013,0.97 ± 0.063
C=C(CC)C(=O)c1ccc(OCC(=O)O)c(Cl)c1Cl [Ethacrynic acid],1.08 ± 0.038,1.01 ± 0.048
C1N2CN3CN1CN(C2)C3 [Methenamine],1.01 ± 0.064,1.03 ± 0.082
O=C1NCCN1c1ncc([N+](=O)[O-])s1 [Niridazole],1.06 ± 0.041,1.12 ± 0.02
CCCCCN(C)CCC(O)(P(=O)(O)O)P(=O)(O)O [Ibandronate sodium],0.681 ± 0.085,0.174 ± 0.029
C[C@@H](O)[C@H]1C(=O)N2C(C(=O)O)=C(SCCNC=N)C[C@H]12 [Imipenem],1.12 ± 0.098,1.05 ± 0.027
c1ccc2c(c1)CCCC2C1=NCCN1 (stereo unspecified) [Tetrahydrozoline hydrochloride],1.02 ± 0.059,1.02 ± 0.051
CC(C)(C)C(=O)OCOC(=O)[C@@H]1N2C(=O)[C@@H](/N=C/N3CCCCCC3)[C@H]2SC1(C)C [Pivmecillinam hydrochloride],0.959 ± 0.056,1.01 ± 0.039
CNc1ncnc2c1ncn2[C@@H]1O[C@H](CO)[C@@H](O)[C@H]1O [N6-methyladenosine],1.12 ± 0.018,0.996 ± 0.024
"OCC(O)CN1CCN(c2ccccc2)CC1 (racemic) [Dropropizine (R,S)]",0.964 ± 0.051,1.01 ± 0.057
CCOC(=O)Nc1ccc2c(c1)N(C(=O)CCN1CCOCC1)c1ccccc1S2 [Moricizine hydrochloride],1.1 ± 0.13,1.13 ± 0.083
COC(=O)[C@H]1[C@H]2C[C@@H]3c4[nH]c5cc(OC)ccc5c4CCN3C[C@H]2C[C@@H](OC(=O)c2cc(OC)c(OC)c(OC)c2)[C@@H]1OC [Reserpine],0.861 ± 0.027,0.919 ± 0.026
CNC(=C[N+](=O)[O-])NCCSCc1ccc(CN(C)C)o1 [Ranitidine hydrochloride],1.02 ± 0.13,1.08 ± 0.045
CC(C)C[C@H](NC(=O)[C@@H](O)[C@H](N)Cc1ccccc1)C(=O)O [Ubenimex],0.991 ± 0.032,0.999 ± 0.063
CCCCCCCCCCCCCCCC[N+](C)(C)CCN(Cc1ccc(OC)cc1)c1ncccn1 [Thonzonium bromide],0.744 ± 0.044,0.631 ± 0.028
CCN(CC)CCCC(C)Nc1c2ccc(Cl)cc2nc2ccc(OC)cc12 (stereo unspecified) [Quinacrine dihydrochloride dihydrate],0.123 ± 0.011,0.108 ± 0.009
CC(=O)N1CCN(c2ccc(OCC3COC(Cn4ccnc4)(c4ccc(Cl)cc4Cl)O3)cc2)CC1 (stereo unspecified) [Ketoconazole],0.8 ± 0.022,0.898 ± 0.028

Structure (SMILES),normalised cell viability (treatment time: 3 days),normalised cell viability (treatment time: 6 days)
CN(CCOc1ccc(NS(C)(=O)=O)cc1)CCc1ccc(NS(C)(=O)=O)cc1 [Dofetilide],1.08 ± 0.059,1.1 ± 0.028
C#C[C@]1(O)CC[C@H]2[C@@H]3CCc4cc(OC)ccc4[C@H]3CC[C@@]21C [Ethynylestradiol 3-methyl ether],0.844 ± 0.02,0.886 ± 0.17
CC(C)NCC(O)c1ccc(NS(C)(=O)=O)cc1 (stereo unspecified) [Sotalol hydrochloride],0.982 ± 0.045,1.05 ± 0.062
COC(=O)C1=C(C)NC(C)=C(C(=O)OC)C1c1ccccc1[N+](=O)[O-] [Nifedipine],0.934 ± 0.074,0.96 ± 0.068
Cc1cc(NC(=O)C2=C(O)c3ccccc3S(=O)(=O)N2C)no1 [Isoxicam],1.04 ± 0.06,1.06 ± 0.042
Cc1cc(C(C)(C)CC(C)(C)C)ccc1OCCOCC[N+](C)(C)Cc1ccccc1 [Methyl benzethonium chloride],0.853 ± 0.09,0.859 ± 0.023
CO[C@@]1(NC(=O)C2SC(=C(C(N)=O)C(=O)O)S2)C(=O)N2C(C(=O)O)=C(CSc3nnnn3C)CS[C@@H]21 (stereo partly specified) [Cefotetan],0.924 ± 0.016,0.971 ± 0.061
CN(C)CCCN1c2ccccc2CCc2ccc(Cl)cc21 [Clomipramine hydrochloride],0.94 ± 0.075,0.993 ± 0.011
CCN(CC)CCOC(=O)C1(c2ccc([N+](=O)[O-])cc2)CCCC1 [Nitrocaramiphen hydrochloride],1.06 ± 0.071,1.1 ± 0.11
Clc1ccccc1CN1CCc2sccc2C1 [Ticlopidine hydrochloride],1.1 ± 0.032,1.08 ± 0.064
Nc1ccc(O)c(C(=O)O)c1 [Mesalamine],1.09 ± 0.028,1.14 ± 0.27
Nc1ccc(S(=O)(=O)Nc2ncccn2)cc1 [Sulfadiazine],0.993 ± 0.022,1.05 ± 0.035
C#C[C@]1(OC(C)=O)CC[C@H]2[C@@H]3CCC4=C[C@@H](OC(C)=O)CC[C@@H]4[C@H]3CC[C@@]21C [Ethynodiol diacetate],1.04 ± 0.05,0.696 ± 0.23
C#C[C@]1(O)CC[C@H]2[C@@H]3CCC4=CC(=O)CC[C@@H]4[C@H]3CC[C@@]21C [Norethindrone],1 ± 0.076,1.03 ± 0.04
CO[C@@]1(NC(=O)C(C(=O)O)c2ccc(O)cc2)C(=O)N2C(C(=O)O)=C(CSc3nnnn3C)CO[C@@H]21 (stereo partly specified) [Moxalactam disodium salt],1.08 ± 0.014,1.05 ± 0.046
CC(=O)O[C@]1(C(C)=O)CC[C@H]2[C@@H]3C=C(C)C4=CC(=O)CC[C@@H]4[C@H]3CC[C@@]21C [Nomegestrol acetate],0.975 ± 0.062,1.01 ± 0.11
